# Results as given in patent US20260207704A1, “STAPLED PEPTIDES AND METHODS THEREOF” (priority 2022, published 2026).
# Experiments:
# [1] = target: T1, beta-catenin/TCF4 (Homo sapiens, UniProt P35222); assay: Nano-BRET target engagement assay (HEK293 cells); type: cell-based
# T1 construct: expressed in transfected cells; host or cells: HEK293 cells
# T1 sequence (P35222 1-781): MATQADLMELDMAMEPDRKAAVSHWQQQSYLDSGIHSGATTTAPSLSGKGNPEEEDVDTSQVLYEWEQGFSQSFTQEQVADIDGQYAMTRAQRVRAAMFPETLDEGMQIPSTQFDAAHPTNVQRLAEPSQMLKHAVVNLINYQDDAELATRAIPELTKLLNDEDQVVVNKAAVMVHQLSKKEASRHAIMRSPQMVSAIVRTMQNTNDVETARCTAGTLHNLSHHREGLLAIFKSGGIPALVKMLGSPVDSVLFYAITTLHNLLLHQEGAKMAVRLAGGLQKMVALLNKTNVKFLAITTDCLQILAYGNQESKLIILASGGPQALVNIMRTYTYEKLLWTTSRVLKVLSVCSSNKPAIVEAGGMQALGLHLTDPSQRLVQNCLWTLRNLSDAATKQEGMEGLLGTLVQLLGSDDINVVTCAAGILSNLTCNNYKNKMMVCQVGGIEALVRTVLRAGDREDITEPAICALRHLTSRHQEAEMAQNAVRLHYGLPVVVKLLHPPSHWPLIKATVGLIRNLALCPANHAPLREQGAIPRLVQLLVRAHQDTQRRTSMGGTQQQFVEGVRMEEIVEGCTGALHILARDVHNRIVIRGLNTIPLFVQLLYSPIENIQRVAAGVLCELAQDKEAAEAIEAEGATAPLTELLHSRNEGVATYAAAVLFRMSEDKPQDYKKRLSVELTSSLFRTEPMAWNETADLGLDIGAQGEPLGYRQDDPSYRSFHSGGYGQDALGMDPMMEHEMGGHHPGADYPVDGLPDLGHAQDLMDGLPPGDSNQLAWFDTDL
# [2] = target: T2, beta-catenin (Homo sapiens, UniProt P35222); assay: fluorescence polarization binding to beta-catenin; details: beta-Catenin FP IC50 (nM)
# T2 sequence (P35222 1-781): T1 sequence (P35222 1-781)
IC50 [1] [nM],IC50 [2] [nM],SMILES
> 10000,200 to 750,"CC(=O)N1CCC[C@@]1(C)C(=O)N[C@@H](CC(=O)O)C(=O)N[C@@H](CC(C)(C)C)C(=O)N[C@]1(C)CCCCCCCCCOC(=O)N2CC[C@@]3(C2)NC(=O)[C@H](CCCCNC(=O)CC[C@@H](C(=O)N[C@@H](C)C(N)=O)NC(=O)[C@H](Cc2csc4ccccc24)NC(=O)[C@H](Cc2ccsc2)NC3=O)NC(=O)[C@H](Cc2ccccc2)NC(=O)[C@H](C)NC(=O)C(C)(C)NC(=O)[C@H](CN(CC(=O)O)CC(F)(F)F)NC(=O)[C@H](CC(=O)O)NC1=O (relative stereo) [I-241, Ac-MePro-Asp-Npg-R6-Asp-TfeGA-Aib-Ala-Phe-Lys*3-PyrS2-3Thi-BztA-GlnR*3-Ala-NH2]"
> 10000,< 50,"C[C@H](NC(=O)[C@@H]1CCC(=O)NCCCC[C@@H]2NC(=O)[C@H](Cc3ccccc3)NC(=O)[C@H](C)NC(=O)C(C)(C)NC(=O)[C@H](Cc3cccc(C(=O)O)c3)NC(=O)[C@H](CC(=O)O)NC(=O)[C@](C)(NC(=O)[C@@H]3CC=CCCCC(=O)N4CCC[C@@]4(C)C(=O)N[C@@H](CC(=O)O)C(=O)N3)CCCC=CCCCOC(=O)N3CC[C@@](C3)(NC2=O)C(=O)N[C@@H](Cc2ccsc2)C(=O)N[C@@H](Cc2csc3ccccc23)C(=O)N1)C(N)=O (single isomer, unassigned) [I-429, 5hexenyl-MePro-Asp-AllylGly-R5-Asp-3COOHF-Aib-Ala-Phe-Lys*3-PyrS2-3Thi-BztA-GlnR*3-Ala-NH2]"
> 10000,< 50,"CC(=O)N1CCC[C@@]1(C)C(=O)N[C@@H](CC(=O)O)C(=O)N[C@@H](CC(C)(C)C)C(=O)N[C@]1(C)CCCCCCCCCOC(=O)N2CC[C@@]3(C2)NC(=O)[C@H](CCCCNC(=O)CC[C@@H](C(=O)N[C@@H](C)C(N)=O)NC(=O)[C@H](Cc2csc4ccccc24)NC(=O)[C@H](Cc2ccsc2)NC3=O)NC(=O)[C@H](Cc2ccccc2)NC(=O)[C@H](C)NC(=O)C(C)(C)NC(=O)[C@H](Cc2cccc(C(=O)O)c2)NC(=O)[C@H](CC(=O)O)NC1=O (relative stereo) [I-235, Ac-MePro-Asp-Npg-R6-Asp-3COOHF-Aib-Ala-Phe-Lys*3-PyrS2-3Thi-BztA-GlnR*3-Ala-NH2]"

# Continued, molecule first:
SMILES,IC50 [1] [nM],IC50 [2] [nM]
"CC(=O)N1CCC[C@@]1(C)C(=O)N[C@@H](CC(=O)O)C(=O)N[C@@H](CC(C)(C)C)C(=O)N[C@]1(C)CCCCCCCOC(=O)N2CC[C@@]3(C2)NC(=O)[C@H](CCCCNC(=O)CC[C@@H](C(=O)N[C@@H](C)C(N)=O)NC(=O)[C@H](Cc2csc4ccccc24)NC(=O)[C@H](Cc2ccsc2)NC3=O)NC(=O)[C@H](Cc2ccccc2)NC(=O)[C@H](C)NC(=O)C(C)(C)NC(=O)[C@H](Cc2cccc(C(=O)O)c2)NC(=O)[C@H](CC(=O)O)NC1=O (relative stereo) [I-233, Ac-MePro-Asp-Npg-R4-Asp-3COOHF-Aib-Ala-Phe-Lys*3-PyrS2-3Thi-BztA-GlnR*3-Ala-NH2]",> 10000,< 50
"CC(=O)N1CCC[C@@]1(C)C(=O)N[C@@H](CC(=O)O)C(=O)N[C@@H](CC(C)(C)C)C(=O)N[C@]1(C)CCCCCCCOC(=O)N2CC[C@@]3(C2)NC(=O)[C@H](CCCCNC(=O)CC[C@@H](C(=O)N[C@@H](C)C(N)=O)NC(=O)[C@H](Cc2csc4ccccc24)NC(=O)[C@H](Cc2ccsc2)NC3=O)NC(=O)[C@H](Cc2ccccc2)NC(=O)[C@H](C)NC(=O)C(C)(C)NC(=O)[C@H](CN(CC(=O)O)CC(F)(F)F)NC(=O)[C@H](CC(=O)O)NC1=O (relative stereo) [I-239, Ac-MePro-Asp-Npg-R4-Asp-TfeGA-Aib-Ala-Phe-Lys*3-PyrS2-3Thi-BztA-GlnR*3-Ala-NH2]",> 10000,200 to 750
"C[C@H](NC(=O)[C@@H]1CCC(=O)NCCCC[C@@H]2NC(=O)[C@H](Cc3ccccc3)NC(=O)[C@H](C)NC(=O)C(C)(C)NC(=O)[C@H](Cc3cccc(C(=O)O)c3)NC(=O)[C@H](CC(=O)O)NC(=O)[C@](C)(NC(=O)[C@@H]3CCCCCCC(=O)N4CCC[C@@]4(C)C(=O)N[C@@H](CC(=O)O)C(=O)N3)CCCCCCCCOC(=O)N3CC[C@@](C3)(NC2=O)C(=O)N[C@@H](Cc2ccsc2)C(=O)N[C@@H](Cc2csc3ccccc23)C(=O)N1)C(N)=O (relative stereo) [I-426, 5hexenyl-MePro-Asp-AllylGly-R5-Asp-3COOHF-Aib-Ala-Phe-Lys*3-PyrS2-3Thi-BztA-GlnR*3-Ala-NH2]",> 10000,< 50
